The campaign covered roughly 48,000 compounds. About 450 (0.94%) were called active. Roughly 19% stayed inconclusive and do not appear here. Calls come from the whole dose curve; as a rule, active = well fitted inhibition curve with a large enough effect; inconclusive = small, poorly fitted or top-dose-only effect; inactive = no such curve, though single readings can be large or run the other way. The list shows a part of the results.
assay: Primary qHTS for Identification of Small Molecule Inhibitors of Huntingtin Promoter Activity; settings: HEK293 HTT promoter firefly luciferase reporter (activity 0% = vehicle and -100% = no light), 24 h; series mostly up to 57.5 µM; activity change, negative = inhibition: at the top concentration; note: nearly all actives have a fitted effect of over 50% in size
Procedure, shortened: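 HEK293 Fluc reporter, 2,500 cells/well, 24 h pre-culture; cpds up to 57.5 uM final, 24 h 37 degrees C; Dual-Glo, 10 min RT; normalized vehicle = 0%, zero RLU = -100%.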

Activity change, negative = inhibition, inactive:
O=C(OCC1CCCO1)c1ccc2c(c1)N(Cc1c(F)cccc1Cl)C(=O)c1ccccc1S2(=O)=O (configuration not stated) -9.25%
Cc1cc(C)c(NC(=O)c2ccc3nc(C(C)C)oc3c2)c(C)c1 -24.4%
COCC(C)NC(=O)C1=CC(c2ccc3c(c2)OCO3)=NS(=O)(=O)N1C (configuration not stated) -18.2%
CCC(C(=O)NC1CCCCC1)n1nc(C)c2sc3ccccc3c2c1=O (configuration not stated) -6.04%
Cc1ccc(Cl)cc1N1CCN(C(=O)c2cnc3c(-c4ccc(F)cc4)c(C)nn3c2C)CC1 -9.12%
O=C(Cn1cc(SCc2ccc(F)cc2)c2ccccc21)N1CCCC1 15.7%
CCN(CC)S(=O)(=O)c1ccc2c(c1)c(=O)c(C(=O)N1CCN(c3cc(C)ccc3C)CC1)cn2C -20.1%
Cc1cccc(-c2nc(S(=O)(=O)c3ccccc3)c(N3CCN(c4ccccc4)CC3)o2)c1 1.53%
CSc1ccc(-c2nc3cc(C)ccn3c2Nc2ccc(C)cc2)cc1 17.9%
CCc1ccc(NC(=O)C(=O)NCCc2sc(-c3ccc(C)cc3)nc2C)cc1 -9.28%
Cn1ccc2c(OCC(=O)NCc3ccc(F)cc3)cccc2c1=O -16.5%
COc1c(Cl)cc(Cl)cc1C(=O)Nc1cccc2cccnc12 -11.6%
Cc1ccc(C(=O)c2cn(Cc3ccccc3)c3cc4c(cc3c2=O)OCCO4)cc1 5.11%
CCc1cccc(NC(=O)CSc2nccn2C)c1 4.1%
CCOC(=O)c1cc(S(=O)(=O)Nc2cc(C)c(Cl)cc2OC)[nH]n1 -16.2%
CC(=O)c1ccc(NC(=O)CSc2nnc(NC(=O)NC3CCCCC3)s2)cc1 17.4%
Cc1cccc(Cn2c(CNC(=O)c3ccccc3)nc3ccccc32)c1 -21.5%
CC(C)OCCCNC(=O)c1c2c(nc3ccccc13)C(=O)N(C1CCCCC1)C2 -8.19%
Cc1ccn2c(Nc3ccc(C(C)C)cc3)c(-c3ccsc3)nc2c1 0.559%
CCOC(=O)c1cc(-c2ccccc2)n(CC(=O)Nc2cc(Cl)c(OC)cc2OC)c1C 2.1%
CCCCCOc1ccccc1Cn1c(=O)oc2ccc(C)cc21 -6.21%
Cc1nn(C(C)C(=O)Nc2cccc(F)c2)c(=O)c2c1sc1ccccc12 (configuration not stated) -21%
Cc1ccc(Nc2c(-c3ccc(N4CCOCC4)cc3)nc3ncccn23)c(C)c1 -10.5%
COCCNC(=O)CCSc1nc(-c2ccc(OC)cc2)cc(C(F)(F)F)n1 -20%
CC1CCCN(Cc2c(O)ccc3c(=O)c(-c4ccccc4Cl)c(C(F)(F)F)oc23)C1 (configuration not stated) -7.88%
Cc1ccccc1C(OCCN(C)C)c1ccccc1 (configuration not stated)
Cc1cc(C)c(NS(=O)(=O)c2ccc3c(c2)NC(=O)CCS3)c(C)c1 -26.1%
Cc1c(I)c(=O)n(-c2ccccc2)n1C -5.62%
O=C(COc1ccc(Cl)cc1)N(Cc1ccco1)c1ccccn1 -9.16%
O=C(CSc1oc(-c2ccco2)nc1S(=O)(=O)c1ccc(Br)cc1)c1ccccc1 -19.5%
CCC(=O)C1=C(c2ccc(Cl)cc2)N(C(=O)CC)n2c(C)nnc2S1 -23.2%
CCCCn1c(=O)c2oc3ccccc3c2n(Cc2cccc(F)c2)c1=O -8.96%
CCC(C)Cn1c(/C=C/c2ccccc2)nc2ccccc21 (configuration not stated) -21.5%
CCOC(=O)c1cccc(NC(=O)c2cc3c(=O)n(C)c4ccccc4c3n2C)c1 0.697%
Cc1ccc(CNC(=O)CCN2C(=O)COc3ccc(C)cc32)cc1 -9.4%
Cc1ccc(NC2=C(CC(=O)O)C(c3ccc(F)cc3)N(c3ccc(C)cc3)C2=O)cc1 (configuration not stated) 26.6%
CCN(CC)CCOC(=O)c1ccc(NC(=O)c2nn(C)c3c2COc2ccccc2-3)cc1 29.6%
Cc1cncc2cccc(S(=O)(=O)N3CCCN(C(=O)CN)C[C@@H]3C)c12 -12.9%
CC(C)c1cnc2c(c1SCC(=O)Nc1ccc(OC(F)(F)F)cc1)c(=O)n(C)c(=O)n2C -12.4%
O=C(CCCN1C(=O)c2cccnc2Oc2ccc(Cl)cc21)NCc1ccccc1F -8.64%
CCc1ccc(N2CCn3c2nc2c3c(=O)n(C/C=C/c3ccccc3)c(=O)n2C)cc1 -1.93%
COc1ccc(NC(=O)c2c(NCc3ccc(N(C)C)cc3)sc3c2CCC3)cc1 -1.94%
Cc1ccc(Nc2ncc(C(=O)N3CCN(c4ccc(F)cc4)CC3)c3ccccc23)cc1Cl -27.9%
CCOc1ccc(-c2nonc2NC(=O)c2oc3cc(C)c(C)cc3c2C)cc1OCC -21.3%
Cc1ccc(C)c(-n2c3nc(=O)[nH]c(=O)c-3cc3c(C)nn(-c4ccccc4)c32)c1 -13.2%
COc1cccc(CNS(=O)(=O)c2cc3[nH]c(=O)c(=O)[nH]c3cc2C)c1 1.23%
CCc1ccc2oc(C(=O)Nc3c(C)n(C)n(-c4ccccc4)c3=O)cc(=O)c2c1 -14.1% [at 11.5 µM]
Cc1ccccc1Cn1c2ccccc2c2cnn(CC(=O)NC(C)CCc3ccccc3)c(=O)c21 (configuration not stated) 1.72%
CCOC(=O)c1ccc(N2C(=O)c3n[nH]c(C)c3C2c2ccccc2OC)cc1 (configuration not stated) -9.92%
N#Cc1ccc(C(=O)NCc2ccc3c(c2)CCN3C(=O)c2ccc(F)cc2)cc1 -3.63%
Cc1cccc(Cn2nc(C)n3c(cc4cc(C)ccc43)c2=O)c1 -2.68%
Cc1ccc(C)c(N2CCN(c3ccc4cc(S(=O)(=O)N5CCC(C)CC5)ccc4n3)CC2)c1 -8.65%
CCOc1ccc(C(=O)NCCc2sc(-c3ccc(OC)c(OC)c3)nc2C)cc1 0.097%
Cc1ccccc1OCC(=O)Nc1sc2c(c1C(=O)OC(C)C)CCCC2 -1.56%
CCOc1ccc(-n2c(SCC(=O)N3CCC(C)CC3)nc3c([nH]c4ccccc43)c2=O)cc1 -7.31%
CCCOc1ccc(C(=O)Nc2cc3c(cc2N2CCOCC2)n(C)c(=O)n3C)cc1 0.0622%
Cc1cccc(-n2c(=O)c3c(c4cc(C)ccc4n3C)n(CC(=O)NCC3CCCO3)c2=O)c1 (configuration not stated) -12.4%
Cc1ccc2c(c1)c(=O)c1ccccc1n2CCCC(=O)Nc1cc(Cl)ccc1C -24.4%
Cc1nn(CC(=O)O)c(=O)c2cc3cc(F)ccc3n12 0.361%
COc1ccccc1NC(=O)c1cc(S(=O)(=O)N2CCN(c3ccccc3Cl)CC2)ccc1F -7%
O=C(Nc1cc(Cl)cc(Cl)c1)c1ccc2c(c1)N(Cc1cccc(Cl)c1)C(=O)c1ccccc1S2=O (configuration not stated) 16.7%
COC(=O)c1ccc(C2c3c(oc4ccccc4c3=O)C(=O)N2c2nc(C)c(C(=O)OC)s2)cc1 (configuration not stated) -12.2% [at 11.5 µM]

Source: PubChem BioAssay AID1508623 (National Center for Advancing Translational Sciences (NCATS), 2021)
